Data reported in paper PMC5892938.
This is one part of the list. At the low end of the ranking the order means little.
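Note: DESeq read counts versus GST-SBP nonspecific binding control pulldown.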

What follows are sequences tested against GST-SBP-SLBP (stem-loop binding protein) (UniProt Q14493) (assay: targeted RNA Bind-n-Seq). Conditions: RBNS binding buffer: 25 mM Tris pH 7.5, 150 mM KCl, 3 mM MgCl2, 0.1% Tween, 0.5 mg/mL BSA, 1 mM DTT; 27 nM protein, 750 pM RNA pool; temperature not stated; high values mean tight binding.
“GGUCACGUCUCAAUCAACUCUUCUUCAGGAGUUUUCUCCUGUUUAUUCAACAGCUCGCAGUCAAG” showed a binding signal (log2 fold change) of 0.0534.
Sequence “GGUCACGUCUCAAUCAACUCAUUCUCCAGGGAAAACCCUGGUUUUUUCAACAGCUCGCAGUCAAG” has a binding signal (log2 fold change) of -0.133.
Work on “GGUCACGUCUCAAUCAACUCUAGUCCAGGAGUUUUCUCCUGCAAUCUCAACAGCUCGCAGUCAAG” yielded a binding signal (log2 fold change) of 0.0042.
“GGUCACGUCUCAAUCAACUCUAGUCCCAGGGAAACCCCUGGUAAAUUCAACAGCUCGCAGUCAAG” showed a binding signal (log2 fold change) of 0.097.
Work on “GGUCACGUCUCAAUCAACUCUCACGAGGGGGGGAAAACCCCUUUACCCUCCAUUUCAACAGCUCGCAGUCAAG” yielded a binding signal (log2 fold change) of -0.507.
Work on “GGUCACGUCUCAAUCAACUCAUAAGAGGGGGGGAAAACCCCUUUGCCCUCGUCAUCAACAGCUCGCAGUCAAG” yielded a binding signal (log2 fold change) of 0.0907.
Work on “GGUCACGUCUCAAUCAACUCAAUCCCAGGAGUUUACUCCUGUAUAUUCAACAGCUCGCAGUCAAG” yielded a binding signal (log2 fold change) of 0.175.
With “GGUCACGUCUCAAUCAACUCAAUAGAGGGGGGGAAAACCCCUUUACCCUCCUUAUCAACAGCUCGCAGUCAAG” the binding signal (log2 fold change) was 0.0891.
“GGUCACGUCUCAAUCAACUCUAUUCCCAGGGAAAGCCCUGGCUAUCUCAACAGCUCGCAGUCAAG” gave a binding signal (log2 fold change) of 0.342.
With “GGUCACGUCUCAAUCAACUCUCUCGAGGGGGGGAAAACCCCUUUACCCUCAUCAUCAACAGCUCGCAGUCAAG” the binding signal (log2 fold change) was -0.152.
For “GGUCACGUCUCAAUCAACUCUUUUCCCAGGGAAAGCCCUGGUAAUUUCAACAGCUCGCAGUCAAG”, the binding signal (log2 fold change) was -0.125.
With “GGUCACGUCUCAAUCAACUCCAUAGAGGGGGGGAAAACCCCUUUGCCCUCGAAAUCAACAGCUCGCAGUCAAG” the binding signal (log2 fold change) was 0.382.
For “GGUCACGUCUCAAUCAACUCUUCUCCCAGGGAAAUCCCUGGUAAUUUCAACAGCUCGCAGUCAAG”, the binding signal (log2 fold change) was 0.0285.
Sequence “GGUCACGUCUCAAUCAACUCUACUUCAGGAGUUUCCUCCUGCAAUCUCAACAGCUCGCAGUCAAG” has a binding signal (log2 fold change) of 0.105.
In the case of “GGUCACGUCUCAAUCAACUCUAUUCCCAGGGAAAUCCCUGGCAUAUUCAACAGCUCGCAGUCAAG”, the binding signal (log2 fold change) is reported as -0.00406.
Sequence “GGUCACGUCUCAAUCAACUCAGUCUCCAGGGAAAGCCCUGGUAUUUUCAACAGCUCGCAGUCAAG” has a binding signal (log2 fold change) of 0.124.
With “GGUCACGUCUCAAUCAACUCACUAGAGGGGGGGAAAACCCCUUUACCCUCGUCUUCAACAGCUCGCAGUCAAG” the binding signal (log2 fold change) was 0.00579.
Sequence “GGUCACGUCUCAAUCAACUCAACUUCAGGAGUUUUCUCCUGUAUUUUCAACAGCUCGCAGUCAAG” has a binding signal (log2 fold change) of 0.0688.
“GGUCACGUCUCAAUCAACUCUUUUUCCAGGGAAACCCCUGGCAUGUUCAACAGCUCGCAGUCAAG” showed a binding signal (log2 fold change) of 0.104.
“GGUCACGUCUCAAUCAACUCAAUUUCAGGAGUUUGCUCCUGCAUAGUCAACAGCUCGCAGUCAAG” showed a binding signal (log2 fold change) of 0.0858.
Work on “GGUCACGUCUCAAUCAACUCAUCCCCAGGAGUUUACUCCUGUUAACUCAACAGCUCGCAGUCAAG” yielded a binding signal (log2 fold change) of 0.107.
“GGUCACGUCUCAAUCAACUCAAUCUCAGGAGUUUUCUCCUGCAAUCUCAACAGCUCGCAGUCAAG” gave a binding signal (log2 fold change) of -0.126.
For “GGUCACGUCUCAAUCAACUCUACUCCAGGAGUUUUCUCCUGCUAUGUCAACAGCUCGCAGUCAAG”, the binding signal (log2 fold change) was -0.0567.
For “GGUCACGUCUCAAUCAACUCUUAAGAGGGGGGGAAAACCCCUUUGCCCUCAUCCUCAACAGCUCGCAGUCAAG”, the binding signal (log2 fold change) was 0.168.
Sequence “GGUCACGUCUCAAUCAACUCAUCGCCAGGAGUUUACUCCUGCUAUCUCAACAGCUCGCAGUCAAG” has a binding signal (log2 fold change) of -0.195.
With “GGUCACGUCUCAAUCAACUCUUUCUCAGGAGUUUCCUCCUGCAAUCUCAACAGCUCGCAGUCAAG” the binding signal (log2 fold change) was -0.0158.
“GGUCACGUCUCAAUCAACUCUUUCCCCAGGGAAAUCCCUGGUAUUUUCAACAGCUCGCAGUCAAG” gave a binding signal (log2 fold change) of 0.032.
“GGUCACGUCUCAAUCAACUCUAUUUCAGGAGUUUGCUCCUGCAUUUUCAACAGCUCGCAGUCAAG” gave a binding signal (log2 fold change) of 0.0103.
Sequence “GGUCACGUCUCAAUCAACUCAUCGUCCAGGGAAAGCCCUGGUUUUCUCAACAGCUCGCAGUCAAG” has a binding signal (log2 fold change) of -0.0969.
For “GGUCACGUCUCAAUCAACUCUUCUCCAGGAGUUUUCUCCUGUAUACUCAACAGCUCGCAGUCAAG”, the binding signal (log2 fold change) was 0.06.
With “GGUCACGUCUCAAUCAACUCUUUCCCCAGGGAAAACCCUGGCUAUCUCAACAGCUCGCAGUCAAG” the binding signal (log2 fold change) was -0.0586.
With “GGUCACGUCUCAAUCAACUCUACUCCCAGGGAAAACCCUGGCAUUUUCAACAGCUCGCAGUCAAG” the binding signal (log2 fold change) was 0.0796.
“GGUCACGUCUCAAUCAACUCAUCUCCCAGGGAAAGCCCUGGCUAACUCAACAGCUCGCAGUCAAG” gave a binding signal (log2 fold change) of 0.0208.
“GGUCACGUCUCAAUCAACUCUUCUUCAGGAGUUUUCUCCUGUUUUUUCAACAGCUCGCAGUCAAG” showed a binding signal (log2 fold change) of -0.157.
For “GGUCACGUCUCAAUCAACUCAUCCCCCAGGGAAAUCCCUGGCAUUUUCAACAGCUCGCAGUCAAG”, the binding signal (log2 fold change) was 0.134.
In the case of “GGUCACGUCUCAAUCAACUCAAACGAGGGGGGGAAAACCCCUUUACCCUCAAUCUCAACAGCUCGCAGUCAAG”, the binding signal (log2 fold change) is reported as -0.0324.
“GGUCACGUCUCAAUCAACUCUAUUCCCAGGGAAACCCCUGGUUAUUUCAACAGCUCGCAGUCAAG” was tested, and the binding signal (log2 fold change) was 0.0642.
Sequence “GGUCACGUCUCAAUCAACUCUACGCCAGGAGUUUUCUCCUGCUAAUUCAACAGCUCGCAGUCAAG” has a binding signal (log2 fold change) of -0.201.
For “GGUCACGUCUCAAUCAACUCUUUCCCAGGAGUUUACUCCUGUUUAUUCAACAGCUCGCAGUCAAG”, the binding signal (log2 fold change) was 0.127.
“GGUCACGUCUCAAUCAACUCGUUUUCAGGAGUUUACUCCUGCAAUUUCAACAGCUCGCAGUCAAG” gave a binding signal (log2 fold change) of 0.0543.
“GGUCACGUCUCAAUCAACUCACAAGAGGGGGGGAAAACCCCUUUACCCUCAAAAUCAACAGCUCGCAGUCAAG” gave a binding signal (log2 fold change) of 0.222.
“GGUCACGUCUCAAUCAACUCAACUCCCAGGGAAAACCCUGGCUAUUUCAACAGCUCGCAGUCAAG” was tested, and the binding signal (log2 fold change) was -0.311.
“GGUCACGUCUCAAUCAACUCUUCCCCCAGGGAAAUCCCUGGUAAUUUCAACAGCUCGCAGUCAAG” was tested, and the binding signal (log2 fold change) was -0.0808.
“GGUCACGUCUCAAUCAACUCUUCUUCAGGAGUUUCCUCCUGUUAUUUCAACAGCUCGCAGUCAAG” showed a binding signal (log2 fold change) of 0.0618.
In the case of “GGUCACGUCUCAAUCAACUCUUCGCCAGGAGUUUACUCCUGUAUUUUCAACAGCUCGCAGUCAAG”, the binding signal (log2 fold change) is reported as -0.187.
In the case of “GGUCACGUCUCAAUCAACUCUUCGCCAGGAGUUUUCUCCUGUUAAUUCAACAGCUCGCAGUCAAG”, the binding signal (log2 fold change) is reported as -0.0225.
With “GGUCACGUCUCAAUCAACUCCACAGAGGGGGGGAAAACCCCUUUGCCCUCCAAAUCAACAGCUCGCAGUCAAG” the binding signal (log2 fold change) was -0.173.
